{
  "source": "PubChem BioAssay AID686979",
  "about": "(National Center for Advancing Translational Sciences (NCATS), 2013)",
  "note": "Values joined by “and” are separate entries in the source; they are usually repeats but may differ in a detail not shown here. Identical values can stand only once. The campaign covered roughly 420,000 compounds. About 50,000 (12%) were called active. Inconclusive results, whose numbers are uncertain, are shown with a selection of clear calls. Calls follow the shape of the dose curve; as a rule, active = well fitted inhibition curve with a large enough effect; inconclusive = small, poorly fitted or top-dose-only effect; inactive = flat fitted curve, though single readings scatter. Where the call is inconclusive, the potency comes from a doubtful curve fit. % is scaled to controls: 0 for no effect and ±100 for the full control effect; potency is read from the fitted curve at half-maximal effect; tags tell the direction and shape of the fitted curve.",
  "data": [
    {"test": "qHTS for Inhibitors of human tyrosyl-DNA phosphodiesterase 1 (TDP1): qHTS in cells in presence of CPT; also: nearly all actives have a fitted effect of over 55% in size", "conditions": "chicken DT40 Tdp1-/-;hTDP1 cells + 20 nM CPT, ATP luminescence, 48 h; activity change, negative = growth inhibition: at 46.2 µM (top of the series) unless noted", "outline": "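Cell growth measured by CellTiter-Glo luminescence after a minimum 48 h, 37 C compound exposure with 20 nM CPT in Tdp1-knockout DT40 cells stably expressing hTDP1, seeded 400/well; qHTS titration format.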", "values": [
      {"smiles": "CC(C)(CO)NC(=O)Nc1ccc(Cl)c(Cl)c1", "Potency": "inactive"},
      {"smiles": "COc1ccccc1/C=C/c1nc(C#N)c(N2CCN(C)CC2)o1", "Potency": "inconclusive: 16.4 µM [inhibitor, single point]"},
      {"smiles": "COc1cc(/C=N/Nc2nncn2/N=C/c2ccc(O)c(OC)c2)ccc1O", "Potency": "inconclusive: 25.9 µM [inhibitor, single point]"},
      {"smiles": "CC(=O)Nc1ccc2c(c1)OCCOCCOc1cc(NC(C)=O)ccc1OCCO2", "Potency": "inconclusive: 6.51 µM [inhibitor, partial curve]"},
      {"smiles": "COc1ccccc1NC(=O)CSc1nnc(NC(=O)NC2CCCCC2)s1", "Potency": "inconclusive: 29.1 µM [inhibitor, single point]"},
      {"smiles": "C=C(C)c1cccc(C(C)(C)NC(=O)NC2CCN(Cc3ccccc3)CC2)c1", "Potency": "inconclusive: 29.1 µM [inhibitor, single point]"},
      {"smiles": "O=[N+]([O-])c1ccc2[nH]nc(-c3ccccc3)c2c1", "activity change, negative = growth inhibition": "inconclusive: -30.8% [inhibitor]"},
      {"smiles": "Cc1ccc([C@H]2C[C@@H](n3cc(-c4ccc(F)cc4)nn3)[C@H](O)CN2C(=O)c2cccs2)cc1", "Potency": "active: 18.4 µM"},
      {"smiles": "O=C(Nc1ccc(F)cc1)NC1(C(=O)NCc2cccs2)CCCCC1", "Potency": "inactive"},
      {"smiles": "O=C(CSc1n[nH]c(-c2ccccc2)n1)c1ccccc1", "Potency": "inconclusive: 9.2 µM [inhibitor, partial curve]"},
      {"smiles": "Cn1cccc1-c1cc(C(=O)N2CCc3c([nH]c4ccccc34)C2c2ccccn2)[nH]n1", "note": "(stereo not given)", "Potency": "inconclusive: 29.1 µM [inhibitor, single point]"},
      {"smiles": "CCN(CC)S(=O)(=O)c1ccc(NC(=O)CSc2nc3nc(C)cc(C)c3c(=O)[nH]2)cc1", "Potency": "inconclusive: 29.1 µM [inhibitor, single point]"},
      {"smiles": "Cc1ccc2nc(N3CCN(S(=O)(=O)c4ccc(C)c(Cl)c4)CC3)c(C#N)cc2c1", "Potency": "active: 20.6 µM"},
      {"smiles": "Cc1cc(C)nc(N/C=C(\\C#N)C(=O)c2cccc(CSc3ccccc3)c2)n1", "activity change, negative = growth inhibition": "inconclusive: -8.99% [inhibitor]"},
      {"smiles": "Cc1cc(NC(=O)Nc2nnc(N(C)C3CCCCC3)s2)ccc1Br", "Potency": "inconclusive: 23.1 µM [inhibitor, single point]"},
      {"smiles": "CC(=O)[C@H](CC(C)C)NC(=O)[C@@H](CC(C)C)NC(=O)[C@H](CC(C)C)NC(=O)OCc1ccccc1", "Potency": "active: 0.15 µM"},
      {"smiles": "N#Cc1ccc(CN2CCN(C(=O)Cn3nc(C(N)=O)c4ccccc4c3=O)CC2)cc1", "Potency": "inactive"},
      {"smiles": "Cc1ccc2c(c1)nnn2C1CCN(CC(=O)N2CCN(c3ccc(F)cc3)CC2)CC1", "Potency": "active: 16.4 µM"},
      {"smiles": "CC(C)NC(=O)C1(C)CN(S(C)(=O)=O)CC(=O)N1CCOc1ccccc1", "note": "(stereo not given)", "Potency": "inactive"},
      {"smiles": "O=C(NCc1nnnn1-c1ccc(F)cc1)c1ccc(S(=O)(=O)N2CCOCC2)cc1", "Potency": "inactive"},
      {"smiles": "COc1cc(N)c2ncccc2c1SC", "activity change, negative = growth inhibition": "inconclusive: -33.1% [inhibitor]"},
      {"smiles": "CC(C)[C@H](N)C(=O)NC[C@H]1O[C@@H](n2cnc3c(N)ncnc32)[C@H](O)[C@@H]1O", "Potency": "inactive"},
      {"smiles": "Cc1cccc(CN2CCN(C(=O)CN(C)C(C)C(=O)Nc3ccc(C(N)=O)cc3)CC2)c1", "note": "(stereo not given)", "Potency": "inactive"},
      {"smiles": "Cc1ccc(S(=O)(=O)CCC(=O)Nc2ccc(OC(F)(F)F)cc2)cc1", "Potency": "active: 20.6 µM"},
      {"smiles": "Cc1cccc(NC(=O)Cn2ncc3c4ccccc4n(Cc4ccccc4)c3c2=O)c1C", "Potency": "inconclusive: 23.1 µM [inhibitor, single point]"},
      {"smiles": "CN1C(=O)c2ccccc2C1=O", "activity change, negative = growth inhibition": "inconclusive: 10.5% [inhibitor] [at 92.5 µM]"},
      {"smiles": "Cc1nn(Cc2ccccc2)c(=O)c2nn(-c3ccc(Cl)cc3)c(C)c12", "Potency": "inconclusive: 20.6 µM [inhibitor, single point]"},
      {"smiles": "CCN1C(=O)[C@H]2[C@@H](c3ccc(C(F)(F)F)cc3)N[C@]3(CCCN(Cc4cccn4C)C3=O)[C@H]2C1=O", "Potency": "inconclusive: 29.1 µM [inhibitor, single point]"},
      {"smiles": "CCC(Sc1nc2ccncc2[nH]1)C(=O)Nc1cc(Cl)ccc1C", "note": "(stereo not given)", "Potency": "active: 16.4 µM and active: 29.1 µM"},
      {"smiles": "Cc1ccccc1Nc1cc(C)c2c(O)cccc2n1", "Potency": "inconclusive: 29.1 µM [inhibitor, single point]"},
      {"smiles": "COc1cc(Cl)c(C)cc1NC(=O)CSc1nc2c(c(=O)[nH]1)CCC2", "Potency": "inactive"},
      {"smiles": "COc1ccccc1C1(O)CCN(CC(=O)Nc2nc(-c3ccccc3)cs2)CC1", "Potency": "inactive"},
      {"smiles": "CC1(C)CC(=O)C=C(Nc2cc(-c3ccccc3)[nH]n2)C1", "Potency": "inactive"},
      {"smiles": "CCc1ccccc1NC(=O)Cn1c(=O)n(CCCCCC(=O)NCc2ccc(C)cc2)c(=O)c2sccc21", "Potency": "inconclusive: 20.6 µM [inhibitor, partial curve]"},
      {"smiles": "CCOC(=O)O[C@]1(C(=O)OCCl)CC[C@H]2[C@@H]3CCC4=CC(=O)C=C[C@]4(C)[C@H]3[C@@H](O)C[C@@]21C", "Potency": "inactive"},
      {"smiles": "Cc1nn(S(=O)(=O)N2CCCCC2)c(C)c1Br", "Potency": "inconclusive: 13 µM [inhibitor, partial curve, poor fit]"},
      {"smiles": "O=C(Cn1nnc(-c2ccccc2)c1COc1ccc2ccccc2c1)NCC1CC1", "Potency": "active: 18.4 µM"},
      {"smiles": "COc1cc(OC)c2c3c(c(C4CCCCC4)nc2c1)CCCC3", "Potency": "inconclusive: 18.4 µM [inhibitor, single point]"},
      {"smiles": "Cc1ccc2[nH]c(=O)c(CNS(=O)(=O)c3ccccc3)c(-c3ccccc3)c2c1", "Potency": "inconclusive: 29.1 µM [inhibitor, single point]"},
      {"smiles": "Cc1ccc(S(=O)(=O)Nc2ccc(Cl)cc2)cc1NC(=O)c1cc2c(s1)CCCC2", "Potency": "inconclusive: 18.4 µM [inhibitor, single point]"},
      {"smiles": "CCOc1cc(/C=C2\\SC(=S)N(Nc3ccccc3)C2=O)ccc1O", "Potency": "inconclusive: 18.4 µM [inhibitor, single point]"},
      {"smiles": "O=C(COC(=O)c1cc(=O)[nH]c2ccccc12)NCc1ccc(Cl)cc1", "Potency": "inactive"},
      {"smiles": "COc1cc(/C=N/O)cc(Br)c1OCc1cccc(Cl)c1", "Potency": "inactive"},
      {"smiles": "CCc1nnc(NC(=O)CCC(=O)N2CCN(c3cc(C)ccc3C)CC2)s1", "Potency": "inconclusive: 29.1 µM [inhibitor, single point]"},
      {"smiles": "Cc1ccc(S(=O)(=O)NCCc2cc3ccc(C)cc3[nH]c2=O)cc1", "Potency": "inactive"}
    ]}
  ]
}
